The IC50 comes from the fitted curve, where viability falls to half of the control; fits outside the tested doses are given as limits. For AUC the same curve is integrated over the 256-fold range of doses and scaled to a fraction: 1 means no effect, lower means more sensitive. For some assays here: An inferred top dose was calculated from the reported fits.
How the values were obtained:
Experiment in all cases: Viability of human cancer cell lines after 72 h of drug (GDSC screen)
BMS-345541 = compound: Cc1ccc2nc(NCCN)c3ncc(C)n3c2c1 [BMS-345541]; details: top dose 16 µM
Protocol: (§1)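 Human cancer cell lines in 384-well plates, medium with 10% serum, drug for 72 h over a 256-fold dose range (nine 2-fold or five 4-fold steps up to the top dose). Adherent lines were fixed and stained with the nucleic acid dye Syto60, suspension lines read with resazurin; signal relative to control wells, capped at 0 and 100%. One two-parameter sigmoid per drug and line, fitted in a mixed model over all curves with the slope shared within a line.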

Etoposide = compound: COc1cc([C@@H]2c3cc4c(cc3[C@@H](O[C@@H]3O[C@@H]5CO[C@@H](C)O[C@H]5[C@H](O)[C@H]3O)[C@H]3COC(=O)[C@H]23)OCO4)cc(OC)c1O [Etoposide]; details: top dose 16 µM
Protocol: as §1

AZD7762 = compound: NC(=O)Nc1cc(-c2cccc(F)c2)sc1C(=O)N[C@H]1CCCNC1 [AZD7762]; details: top dose 2 µM
Protocol: as §1

XAV 939 = compound: Oc1nc(-c2ccc(C(F)(F)F)cc2)nc2c1CSCC2 [XAV 939]; details: top dose 5 µM; top dose inferred
Protocol: as §1

NPK76-II-72-1 = compound: COc1cc(C(=O)NC2CCN(C)CC2)ccc1Nc1ncc2c(n1)N(C1CCCC1)C(C)CC(=O)N2C [NPK76-II-72-1]; details: top dose 10.24 µM; top dose inferred
Protocol: as §1

GSK-650394 = compound: O=C(O)c1ccc(-c2c[nH]c3ncc(-c4ccccc4)cc23)cc1C1CCCC1 [GSK-650394]; details: top dose 16 µM; top dose inferred
Protocol: as §1

Bexarotene = compound: C=C(c1ccc(C(=O)O)cc1)c1cc2c(cc1C)C(C)(C)CCC2(C)C [Bexarotene]; details: top dose 8 µM
Protocol: as §1

YK 4-279 = compound: COc1ccc(C(=O)CC2(O)C(=O)Nc3c(Cl)ccc(Cl)c32)cc1 [YK 4-279]; details: top dose 10 µM
Protocol: as §1

Cell Line	AUC (BMS-345541)	IC50 (BMS-345541) [µM]	AUC (Etoposide)	IC50 (Etoposide) [µM]	AUC (AZD7762)	IC50 (AZD7762) [µM]	AUC (XAV 939)	IC50 (XAV 939) [µM]	AUC (NPK76-II-72-1)	IC50 (NPK76-II-72-1) [µM]	AUC (GSK-650394)	IC50 (GSK-650394) [µM]	AUC (Bexarotene)	IC50 (Bexarotene) [µM]	AUC (YK 4-279)	IC50 (YK 4-279) [µM]
NB17 (neuroblastoma, adherent)	0.975	> 16	0.6	1.97	0.625	0.292	0.98	> 5	0.95	> 10.2	–	–	–	–	–	–
NCI-H630 (large intestine, adherent)	0.917	> 16	0.815	9.59	0.839	1.52	0.987	> 5	0.967	> 10.2	–	–	–	–	–	–
NCI-H748 (small cell lung carcinoma, suspension)	0.788	9.2	0.475	0.841	–	–	–	–	0.961	> 10.2	0.903	> 16	0.97	> 8	–	–
NCI-H1963 (small cell lung carcinoma, suspension)	–	–	0.795	6.38	0.799	0.819	–	–	0.991	> 10.2	0.966	> 16	0.991	> 8	–	–
NCI-H2171 (small cell lung carcinoma, suspension)	0.893	14.6	0.933	> 16	–	–	–	–	0.911	> 10.2	0.983	> 16	0.986	> 8	–	–
NCI-H2196 (small cell lung carcinoma, adherent)	0.859	14.4	0.798	8.09	–	–	–	–	0.801	5.29	0.945	> 16	0.987	> 8	–	–
NK-92MI (lymphoid neoplasm, suspension)	0.882	15	0.676	2.99	–	–	–	–	–	–	0.63	2.22	0.988	> 8	–	–
OVKATE (ovary, adherent)	0.934	> 16	0.979	> 16	0.733	0.923	0.977	> 5	0.887	> 10.2	0.977	> 16	–	–	–	–
RL95-2 (endometrium, adherent)	0.948	> 16	0.576	1.61	0.883	> 2	0.95	> 5	0.907	> 10.2	–	–	–	–	–	–
SCC-3 (B-cell lymphoma, suspension)	0.914	11.5	0.496	0.98	–	–	–	–	0.966	> 10.2	0.995	> 16	0.996	> 8	–	–
SIG-M5 (acute myeloid leukaemia, suspension)	0.592	1.67	0.166	0.143	–	–	–	–	0.531	0.762	0.476	0.875	0.032	< 0.0312	–	–
SNU-475 (liver, adherent)	0.893	15.2	0.947	> 16	–	–	–	–	0.851	6.48	0.979	> 16	0.971	> 8	–	–
SU-DHL-1 (anaplastic large cell lymphoma, suspension)	0.895	9.91	0.507	1.04	–	–	–	–	0.959	> 10.2	0.997	> 16	0.997	> 8	–	–
SW48 (large intestine, adherent)	0.862	13.6	0.453	0.744	0.789	0.879	0.945	> 5	0.912	> 10.2	–	–	0.934	> 8	–	–
TALL-1 (T-cell lymphoblastic leukaemia, suspension)	0.801	7.36	0.986	> 16	–	–	–	–	0.878	9.52	0.984	> 16	0.983	> 8	–	–
TE-441-T (rhabdomyosarcoma, adherent)	0.844	10.8	0.866	13.3	–	–	–	–	0.979	> 10.2	0.967	> 16	0.989	> 8	–	–
UACC-257 (melanoma, adherent)	0.865	> 16	–	–	0.931	> 2	0.919	> 5	0.897	> 10.2	0.959	> 16	0.966	> 8	0.835	8.93
UACC-812 (breast, adherent)	0.949	> 16	0.931	> 16	–	–	–	–	0.983	> 10.2	0.991	> 16	0.991	> 8	–	–
UM-UC-3 (bladder, adherent)	0.898	> 16	–	–	0.803	0.922	0.964	> 5	0.827	5.75	0.757	5.19	0.95	> 8	0.669	1.79
WM-115 (melanoma, adherent)	0.874	> 16	–	–	0.898	> 2	0.98	> 5	0.887	> 10.2	0.981	> 16	0.871	> 8	0.656	1.88
WSU-DLCL2 (B-cell lymphoma, suspension)	0.88	11.8	–	–	0.64	0.282	0.79	1.83	0.966	> 10.2	0.972	> 16	0.992	> 8	0.972	> 10
WSU-NHL (lymphoid neoplasm, suspension)	0.907	> 16	–	–	0.34	0.0478	0.988	> 5	0.722	2.49	0.85	10	0.99	> 8	0.803	4.27
